From PubChem BioAssay AID686978 (National Center for Advancing Translational Sciences (NCATS), 2013)
The whole screen tested about 420,000 compounds, of which about 64,000 (15%) were called active. The inconclusive results got no clear call from the source; some entries with a clear call stand among them for comparison. The call rests on the fitted dose curve; in most records, active means well fitted inhibition curve with a large enough effect; inconclusive means small, poorly fitted or top-dose-only effect; inactive means flat fitted curve, though single readings scatter. Potencies of inconclusive entries are left out as doubtful fits.

Assay: qHTS for Inhibitors of human tyrosyl-DNA phosphodiesterase 1 (TDP1): qHTS in cells in absence of CPT; further: nearly all actives have a fitted effect of over 55% in size
Settings: DT40 Tdp1-/- hTDP1 cells, no CPT, ATP luminescence, 48 h; activity change, negative = growth inhibition: at 46.2 µM (top of the series) unless noted
Method in brief: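 DT40 Tdp1-/-;hTDP1 cells, no CPT (DMSO vehicle only), 400 cells/well; compounds pin-transferred; ≥48 hr, 37 °C; CellTiter-Glo 30 min RT dark, luminescence read.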
On the % scale 0 is the no-effect control and ±100 the full control effect; potency means the concentration at half of the fitted maximal effect; tags describe the fitted curve by direction and shape.

| Structure (SMILES) | Potency | activity change, negative = growth inhibition |
| --- | --- | --- |
| O=C(NCC1CCCN1S(=O)(=O)c1cccs1)c1cccc(F)c1 (stereo unspecified) | active: 18.4 µM |  |
| Cc1ccc(Sc2cc(C(=O)NCCCN(C)C)c3ccccc3n2)cc1 | inconclusive [inhibitor, single point] |  |
| CCOC(=O)C1=C(C)N=C2SC(C(=O)OC)=CC(=O)N2C1c1ccc(OC)cc1 (stereo unspecified) | inconclusive [inhibitor, partial curve] |  |
| Cc1c(C)c(C)c(/C=C/c2ccnc3ccccc23)c(C)c1C | active: 11.2 µM |  |
| Cc1cc(NC(=O)CSc2nc(N)c(NC(=O)c3ccco3)c(=O)[nH]2)no1 | inactive |  |
| CCOc1ccccc1C(=O)Nc1cc2c(cc1N1CCCCC1)n(C)c(=O)n2C | active: 18.4 µM |  |
| Cc1ccc(-c2cc(C(=O)Nc3cc(C)on3)c3ccccc3n2)c(C)c1 | inconclusive [inhibitor, partial curve] |  |
| COc1ccc(NC(=O)CSc2n[nH]c(-c3ccccc3)n2)cc1Cl | inconclusive [inhibitor, single point] |  |
| Cc1nc2ccc(C(=O)N(C)CC3CCCN(CCc4ccc(Cl)cc4)C3)cc2[nH]1 (stereo unspecified) | inactive |  |
| CCC(C)n1c(SCc2ccc([N+](=O)[O-])cc2)nc2ccsc2c1=O (stereo unspecified) | active: 20.6 µM |  |
| COc1ccc(NC(=O)c2cc(-c3cc(F)ccc3OC(C)C)n[nH]2)cc1OC | inconclusive [inhibitor, single point] |  |
| Cc1ccc(C(C)NC(=S)NCc2ccc(F)cc2)c(C)c1 (stereo unspecified) | active: 16.4 µM |  |
| O=c1c(-c2ccccc2)nc2cnc(N3CCNCC3)nc2n1Cc1ccc(F)cc1 | inconclusive [inhibitor, single point] |  |
| CCCCCC(=O)Cc1cc(O)cc2c1C(=O)Oc1cc(O)c(C(=O)O)c(CCCCC)c1O2 | inconclusive [inhibitor, single point] |  |
| CC(=O)c1ccc(-n2c(SCC(=O)c3c[nH]c4ccccc34)nc3ccccc3c2=O)cc1 | active: 11.6 µM |  |
| O=[N+]([O-])c1nn(-c2ccc3c(c2)OCCO3)n(O)c1=NCCCO | active: 20.6 µM |  |
| CCOc1ccc(CN2CCN(S(=O)(=O)c3ccc(NC(C)=O)cc3)CC2)cc1OC | inconclusive [inhibitor, single point] |  |
| CC1CN(c2ccnc3cc(Cl)ccc23)CC(C)O1 (stereo unspecified) | active: 11.6 µM |  |
| O=C(NCCS(=O)(=O)N1CCN(c2ccccc2F)CC1)c1ccc2c(c1)OCO2 | inactive |  |
| CCOc1ccccc1N(CC)C(=O)c1cc2c(=O)n(CC)c3ccccc3c2s1 | active: 16.4 µM |  |
| Cn1c(C2CCCCC2)nc2ccccc21 | inactive |  |
| CCOc1ccc(N2C(=O)CC(N3CCN(c4ccc(Cl)cc4)CC3)C2=O)cc1 (stereo unspecified) | inconclusive [inhibitor, single point] |  |
| Nc1ccccc1Nc1cccc(C(F)(F)F)c1 | inconclusive [inhibitor, single point] |  |
| O=C(CCN1C(=O)/C(=C\c2ccccc2F)SC1=S)N1CCOCC1 | active: 0.731 µM |  |

| Structure (SMILES) | Potency | activity change, negative = growth inhibition |
| --- | --- | --- |
| Cc1ccc(CN(C(=O)c2ccc([N+](=O)[O-])cc2)c2ccccn2)cc1 | inconclusive [inhibitor, single point] |  |
| Cc1cc(C)c(NC(=O)c2cc3c(nc4sccn43)s2)c(C)c1 | inconclusive [inhibitor, partial curve] |  |
| CN(C)S(=O)(=O)c1cccc(NC(=S)NN=C(Cc2ccccc2)Cc2ccccc2)c1 | active: 5.17 µM |  |
| COc1ccc(NC(=S)NCCC2=CCCCC2)cc1OC | inconclusive [inhibitor, single point] |  |
| Cc1cc(Nc2cccc(C(F)(F)F)c2)nc2ccc(NC(=O)c3cncc(Br)c3)cc12 | active: 5.17 µM |  |
| COc1ccc(OC)c(N/C(=N/c2nc(C)cc(C)n2)NC(C)=O)c1 | active: 7.31 µM |  |
| CCOC(=O)N1CCN(CC(=O)Nc2c(C(=O)OC)[nH]c3ccccc23)CC1 | inconclusive [inhibitor, partial curve] |  |
| CCN(CC)S(=O)(=O)c1cccc(-c2n[nH]c(=S)n2C)c1 | inactive |  |
| COc1ccc(OC)c(-n2cnc3cc(C(=O)NCCc4ccccc4)ccc32)c1 | inconclusive [inhibitor, single point] |  |
| COc1ccc(/C=C/C(=O)NC(=S)NNC(=O)c2cc(OC)c(OC)c(OC)c2)cc1OC | active: 14.6 µM |  |
| NC(=O)N1CCC2(CC1)NC(=O)N(c1ccccc1)N2 | inactive |  |
| CCc1ccc(C(O)(CC)C(CN2CCOCC2)c2ccccc2)cc1 (stereo unspecified) | inconclusive [inhibitor, single point] |  |
| CCCN(CC(=O)Nc1ccccc1OC)C(=O)Cc1ccc2c(c1)CCC2 | inconclusive [inhibitor, single point] |  |
| CCOc1ccc(NS(=O)(=O)c2cc(C(=O)N(CC)CC(=O)NCc3cccs3)ccc2C)cc1 | inconclusive [inhibitor, single point] |  |
| CC(C)OC(=O)c1c(NC(=O)c2cc3nc(-c4ccccc4)cc(C(F)(F)F)n3n2)sc2c1CCCC2 | inconclusive [inhibitor, single point] |  |
| Cc1cc(N2CCN(C(=O)c3[nH]c(C(F)(F)F)nc3-c3ccccc3)CC2)c2ccccc2n1 | active: 14.6 µM |  |
| COc1ccc(C)cc1NC(=O)c1nnn(Cc2cc(C)ccc2C)c1N | inconclusive [inhibitor, single point] |  |
| Cc1ccc(OCC(=O)Nc2ccccc2C(=O)OCc2cc(=O)n3c(C)csc3n2)cc1 | active: 20.6 µM |  |
| O=C(Nc1cccs1)Nc1nnc([C@@H]2C[C@H](O)[C@@H](CO)O2)s1 | inactive |  |
| Cc1ccccc1-c1nc(CN2CCC(C(=O)NCc3ccco3)CC2)c(C)o1 | inconclusive [inhibitor, single point] |  |
| N#Cc1cc2c(=O)n3ccccc3nc2n(-c2nnc(SCc3ccccc3F)s2)c1=O | inactive |  |
| CC(=O)N1CCc2cc(Br)cc(S(=O)(=O)N3CCc4ccccc43)c21 | inconclusive [inhibitor, single point] |  |
| Cc1cc(/C=C(\C#N)C(=O)OCC(=O)Nc2ccc(OC(F)F)cc2)c(C)n1CC(C)C | inconclusive [inhibitor, partial curve] |  |
| CC(=O)O[C@]1(C(C)=O)CC[C@H]2[C@@H]3C=C(C)C4=CC(=O)CC[C@@H]4[C@H]3CC[C@@]21C | active: 4.61 µM |  |

| Structure (SMILES) | Potency | activity change, negative = growth inhibition |
| --- | --- | --- |
| CC(C(=O)NCc1ccc(Cl)cc1)n1ccc2cc(S(=O)(=O)N3CCCC3)ccc21 (stereo unspecified) | inconclusive [inhibitor, single point] |  |
| CN(C)CC(CCCCC(CN(C)C)C(=O)c1ccccc1)C(=O)c1ccccc1 (stereo unspecified) | active: 5.8 µM |  |
| CSc1nnc2c(n1)OC(c1cccc(O)c1Cl)Nc1ccccc1-2 (stereo unspecified) | inconclusive [inhibitor, single point] |  |
| CC1=C(C(=O)Nc2ccc(C)cc2C)C(c2ccc[nH]2)n2ncnc2N1 (stereo unspecified) | inactive |  |
| COC(=O)c1cccc(N(C(=O)c2ccco2)C(C(=O)NC2CCCC2)c2ccco2)c1 (stereo unspecified) |  | inconclusive: -35.2% [inhibitor] |
| COc1ccc(OCC(=O)Nc2cccc(C(=O)Nc3ccccc3C(=O)O)c2)cc1 | inconclusive [inhibitor, single point] |  |
| CCOC(=O)C1CCCN(S(=O)(=O)c2ccc3c(c2)N(C)C(=O)CC(=O)N3C)C1 (stereo unspecified) | inactive |  |
| Cc1cccc(NC(=O)N2CCN(Cc3ccc(Cl)cc3)CC2)c1 | inconclusive [inhibitor, single point] |  |
| C/C(=N\NC(=O)C(=O)Nc1cccc(Cl)c1C)c1ccncc1 | active: 14.6 µM |  |
| O=C(N/N=C/c1ccccn1)c1ccc(Br)o1 | inconclusive [inhibitor, single point] |  |
| Cc1ccc(S(=O)(=O)N2CCN(C(=O)c3ccc(Br)o3)CC2)c(C)c1 | inconclusive [inhibitor, single point] |  |
| C/C=N/NC(=O)c1cc(Br)ccc1O | inactive |  |
| COc1ccc(/C=C2\CCC(C3CCCC3)C2=O)cc1Cn1cccn1 (stereo unspecified) | inconclusive [inhibitor, single point] |  |
| Cc1cccc(NC(=O)CSc2nnc(-c3cc(C)n(-c4ccccc4)c3C)o2)c1C |  | inconclusive: -34.4% [inhibitor] |
| COCCCNC(=O)Cn1c(=O)n(-c2ccc(Cl)cc2)c(=O)c2c3c(sc21)CCCCC3 | inactive |  |
| C=CCNc1nc2cc(-c3cccc(NC(C)=O)c3)sc2c(=O)n1C | inconclusive [inhibitor, single point] |  |
| CC(=O)c1cccc(NC(=O)c2ccc3c(Cl)c4c(nc3c2)CCCC4)c1 | active: 23.1 µM |  |
| [O-]/[N+](=C\c1cccc(Br)c1)c1ccccc1 | inconclusive [inhibitor, single point] |  |
| CSc1nc(Oc2ccc(F)cc2F)cc(C(F)(F)F)n1 | inconclusive [inhibitor, single point] |  |
| Cc1ccc(CCNC(=O)c2ccc(CS(=O)(=O)c3ccccc3C)o2)cc1 | inactive |  |
| CCN(CC)S(=O)(=O)c1ccc(N2CCN(C)CC2)c(NC(=O)CSCC(=O)Nc2cccc(C)c2)c1 | inconclusive [inhibitor, single point] |  |
| COc1ccccc1NC(=O)C(=O)NCC(c1ccco1)N1CCc2ccccc2C1 (stereo unspecified) | inconclusive [inhibitor, single point] |  |
| CCc1ccc(CNC(=O)c2cnc3sc(N(CC)CC)nn3c2=O)cc1 | inconclusive [inhibitor, single point] |  |
